In all, about 200,000 compounds went through this assay and about 10 (0.005%) were called active. This list was built around the results that the source calls inconclusive (neither active nor inactive); the mix of calls is not that of the screen. Calls follow the shape of the dose curve; as a rule, active = well fitted inhibition curve with a large enough effect; inconclusive = small, poorly fitted or top-dose-only effect, or effect the other way, or another doubt; inactive = no such curve, though single readings can be large or run the other way. Potencies of inconclusive entries are doubtful fits and often do not repeat.
The compounds below were run against Lysosomal alpha-glucosidase (Homo sapiens) (UniProt P10253) (assay: qHTS Assay for Inhibitors of Human alpha-Glucosidase as a Potential Chaperone Treatment of Pompe Disease). Settings: purified human GAA, 4-MU-alpha-glucoside fluorescence; activity change, negative = inhibition: at 76.9 µM (top of the series) unless noted.
Procedure, shortened: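 qHTS format, compound range up to 77 uM. Human lysosomal enzyme at 4 nM, 400 uM 4-MU glucoside substrate, pH 5.0, 20 min room temperature; fluorescence after alkaline stop gives activity normalized to controls.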
COC(=O)c1c(C)n(-c2ccc(C)cc2)c2ccc(O)cc12 was tested, and the Potency was inconclusive: 39.8 µM [inhibitor, single point]. For Cc1ccc(NC(=O)c2cc(Cl)nc3ccccc23)cc1, the Potency was inconclusive: 56.2 µM [inhibitor, single point]. With O=[N+]([O-])c1cc(C(F)(F)F)ccc1NCCNC(=S)Nc1ccc(Cl)cc1 the Potency was inconclusive: 50.1 µM [inhibitor, single point]. CCS(=O)(=O)c1ccc(O)c(NC(=O)COc2ccc(Cl)cc2)c1 was tested, and the Potency was “inactive”. For COC(=O)c1ccc(Sc2ccccc2NS(=O)(=O)c2ccc(OC)cc2)nc1, the Potency was inconclusive: 3.55 µM [inhibitor, full curve]. With C/C(=N\N1CCN(C2c3ccccc3-c3ccccc32)CC1)c1cccnc1 the Potency was “inactive”. O=C1CCC/C(=N\NC(=O)c2ccc(COc3ccccc3-c3ccccc3)cc2)C1 was tested, and the Potency was inconclusive: 31.6 µM [inhibitor, single point]. For COc1cc(C(=O)OCC(=O)Nc2sccc2C(N)=O)cc(OC)c1OC, the Potency was inconclusive: 5.01 µM [inhibitor, full curve]. For O=C(CN1CCN(S(=O)(=O)c2ccc(F)cc2)CC1)Nc1cc(C(F)(F)F)ccc1Cl, the Potency was inconclusive: 28.2 µM [inhibitor, single point]. O=C1c2cnc3nc(SCc4ccccc4)nn3c2CC2c3ccccc3CCN12 (stereo not drawn) was tested, and the Potency was inconclusive: 31.6 µM [activator, partial curve]. CCOC(=O)N1CCN(C(=O)c2ccc3nc(N4CCCCC4)sc3c2)CC1 was tested, and the Potency was inconclusive: 12.6 µM [inhibitor, single point]. CCOC(=O)c1cc(CC)sc1NC(=O)C1CC1 was tested, and the Potency was inconclusive: 0.282 µM [activator, full curve, poor fit]. With S=c1[nH]nc(-c2cc3c(s2)-c2ccccc2CC3)o1 the Potency was inconclusive: 22.4 µM [activator, partial curve]. For CCOc1ccccc1NC(=O)COC(=O)CC(NC(N)=O)c1ccc(Cl)cc1 (stereo not drawn), the activity change, negative = inhibition was inconclusive: 4.61% [activator]. In the case of O=C(CN(c1ccc(F)cc1)S(=O)(=O)c1ccc2c(c1)OCCO2)Nc1ccc2c(c1)OCO2, the Potency is reported as inconclusive: 1.12 µM [inhibitor, partial curve, poor fit]. CCN(CC)S(=O)(=O)c1ccc(S(=O)(=O)Nc2ccc(C(=O)N3CCCC3)cc2)cc1 was tested, and the Potency was inconclusive: 44.7 µM [inhibitor, single point]. In the case of CN(C)c1nc(Oc2ccc(C(=O)OCC(=O)Nc3ccccc3)cc2)nc(N(C)C)n1, the Potency is reported as inconclusive: 50.1 µM [inhibitor, partial curve]. In the case of Cc1ccc(NS(=O)(=O)c2ccc(NC(=O)CSc3ccc(Cl)cc3)cc2)c(C)c1, the Potency is reported as inconclusive: 50.1 µM [inhibitor, single point]. For Cc1c(NC(=O)COC(=O)c2cc(-c3ccc(-c4ccccc4)cc3)nc3ccccc23)c(=O)n(-c2ccccc2)n1C, the activity change, negative = inhibition was inconclusive: 17.4% [activator]. In the case of CC1(C)Oc2ccc(C(=O)N3CCOCC3)cc2N(CC(=O)Nc2ccccc2)C1=O, the Potency is reported as inconclusive: 31.6 µM [inhibitor, single point]. With COCCN(CCOC)Cc1c(O)ccc2c3c(c(=O)oc12)CCC3 the Potency was inconclusive: 35.5 µM [activator, partial curve]. With Cc1cccc(OC(=O)CN2C(=O)C3C4CCC(C4)C3C2=O)c1C (stereo not drawn) the Potency was inconclusive: 56.2 µM [inhibitor, single point]. In the case of Clc1ccc2c(c1)CNc1c(ncnc1N1CCOCC1)O2, the Potency is reported as inconclusive: 0.708 µM [activator, full curve, poor fit]. For Clc1ccc(C(c2ccccc2)N2CCNCC2)cc1 (stereo not drawn), the activity change, negative = inhibition was inconclusive: -15.5% [inhibitor]. CCCC(=O)Nc1ccc(-c2nc3cc(C)c(C)cc3o2)c(O)c1 was tested, and the Potency was inconclusive: 3.16 µM [activator, full curve]. COc1ccccc1C1NC=C([N+](=O)[O-])C=C1[N+](=O)[O-] (stereo not drawn) was tested, and the Potency was inconclusive: 28.2 µM [inhibitor, single point]. Cc1ccc(S(=O)(=O)c2cc3c(=O)n4ccccc4nc3n(Cc3ccco3)c2=N)cc1 was tested, and the Potency was inconclusive: 11.2 µM [activator, single point]. In the case of CCN(CC)CCCNC(=O)c1cc2c(-c3ccc(Cl)cc3)nn(C)c2s1, the activity change, negative = inhibition is reported as inconclusive: -15.5% [inhibitor]. With CCN1C(=O)N(CN2CCOCC2)C2C1N(CN1CCOCC1)C(=O)N2CC (stereo not drawn) the Potency was inconclusive: 50.1 µM [inhibitor, single point]. In the case of CCOC(=O)c1c(C)[nH]c(C(=O)OC/C(O)=C(\C#N)c2nc3ccccc3[nH]2)c1C, the activity change, negative = inhibition is reported as inconclusive: -17.1% [inhibitor]. Cc1csc2ncc(C(=O)NC(C)c3ccccc3)c(=O)n12 (stereo not drawn) was tested, and the Potency was inconclusive: 50.1 µM [activator, single point]. Cc1ccc(NC(=S)Nc2ccc(S(=O)(=O)Nc3ncccn3)cc2)c(C)c1 was tested, and the activity change, negative = inhibition was inconclusive: 15.8% [activator] [at 15.4 µM]. For COc1ccc(OC)c(NC(=O)CSc2nnc(Cn3c(=O)sc4ccccc43)n2C)c1, the Potency was inconclusive: 56.2 µM [inhibitor, single point]. For O=C(Cn1c(=O)oc2cc(S(=O)(=O)N3CCCC3)ccc21)NC1CCCc2ccccc21 (stereo not drawn), the Potency was “inactive”. O=C(COc1ccc(Cl)cc1Cl)N/N=C1\CCCc2ccccc21 was tested, and the Potency was inconclusive: 10 µM [inhibitor, full curve]. In the case of O=C(CN1C(=O)/C(=C/c2c(F)cccc2Cl)Oc2ccccc21)NCc1ccco1, the Potency is reported as inconclusive: 35.5 µM [activator, single point]. CSc1nccc(Oc2cncc(Cl)c2)n1 was tested, and the Potency was inconclusive: 11.2 µM [inhibitor, single point]. With O=c1[nH]c2cc3c(cc2cc1CN(Cc1ccco1)C(=S)NCC1CCCO1)OCCO3 (stereo not drawn) the activity change, negative = inhibition was inconclusive: 20.4% [activator]. With CCN(CC)c1ccc(/C=N/N=C(N)N)c(O)c1 the activity change, negative = inhibition was inconclusive: 17.4% [activator]. With O=S(=O)(c1ccccc1)N1CCN(c2nnnn2-c2ccccc2)CC1 the Potency was inconclusive: 20 µM [inhibitor, single point]. N#CCSc1ccc(-c2nc3ccccc3[nH]2)cn1 was tested, and the activity change, negative = inhibition was inconclusive: 15.8% [activator]. With COC(=O)c1c(NC(=O)c2ccc(C)c(S(=O)(=O)Nc3ccccc3C)c2)sc2c1CCCC2 the Potency was inconclusive: 11.2 µM [inhibitor, single point]. For CCCCCCCC(=O)NNC(=O)c1ccc(F)cc1, the Potency was inconclusive: 12.6 µM [inhibitor, single point]. In the case of COc1ccc(OC)c(C(=O)CN2CCN(S(=O)(=O)c3ccc(Br)cc3)CC2)c1, the activity change, negative = inhibition is reported as inconclusive: -16.4% [inhibitor]. In the case of c1ccc(Cn2nnnc2C(c2cccnc2)N2CCN(C3CCCCC3)CC2)cc1 (stereo not drawn), the Potency is reported as inconclusive: 17.8 µM [inhibitor, partial curve]. In the case of CO/N=C(/c1nonc1N)N1CCN(c2ccc([N+](=O)[O-])cc2)CC1, the Potency is reported as inconclusive: 50.1 µM [inhibitor, partial curve, poor fit]. In the case of CCCC(=O)N(Cc1cc2cc(C)ccc2[nH]c1=O)c1ccccc1OC, the Potency is reported as inconclusive: 12.6 µM [inhibitor, single point]. In the case of CCOc1ccc(NS(=O)(=O)c2cc(NC(=O)c3cccc(C)c3)ccc2Cl)cc1, the Potency is reported as inconclusive: 44.7 µM [inhibitor, partial curve, poor fit]. Cc1ccc(N2C(=O)C3C4C=CC(C4)C3C2=O)cc1C (stereo not drawn) was tested, and the activity change, negative = inhibition was inconclusive: 10% [activator]. For O=C(Nc1ccccc1)c1ccc(Br)c(S(=O)(=O)Nc2cccnc2)c1, the activity change, negative = inhibition was inconclusive: -16.4% [inhibitor]. CCC(=O)Nc1nnc(-c2ccncc2)s1 was tested, and the activity change, negative = inhibition was inconclusive: 16.7% [activator]. In the case of CC(NC(=S)Nc1ccc(OC(F)F)cc1OC(F)F)C(C)(C)C (stereo not drawn), the Potency is reported as inconclusive: 56.2 µM [inhibitor, single point]. For O=C(COc1ccc2ccc(=O)oc2c1)N1CCN(c2ccccc2)CC1, the Potency was inconclusive: 44.7 µM [activator, partial curve]. With COc1ccc(C(NC(=O)c2cccc(F)c2)c2ccccc2)cc1 (stereo not drawn) the Potency was inconclusive: 28.2 µM [inhibitor, single point]. In the case of CC(C)NC(=O)c1ccc(S(=O)(=O)N(C)C)cc1, the Potency is reported as “inactive”. With CCOC(=O)N1CCN(C(=O)CCNS(=O)(=O)c2cc(Br)cnc2N)CC1 the Potency was inconclusive: 3.98 µM [inhibitor, single point]. With CCn1c(N)c(C(N)=O)sc1=S the Potency was inconclusive: 3.55 µM [inhibitor, partial curve]. In the case of CCNc1ccc(C(=O)OCC)cc1NC(=O)c1cccc(S(=O)(=O)N2CCOCC2)c1, the activity change, negative = inhibition is reported as inconclusive: -15.8% [inhibitor]. In the case of O=C(Nn1c(O)c(C=C2N=c3ccccc3=N2)sc1=S)c1ccccc1, the Potency is reported as inconclusive: 8.91 µM [inhibitor, full curve]. With Cc1ccccc1-c1nn2c(-c3ccccc3)nnc2s1 the Potency was inconclusive: 56.2 µM [inhibitor, single point]. CC1CCCCN1C(C(=O)O)c1ccccc1 (stereo not drawn) was tested, and the activity change, negative = inhibition was inconclusive: 17.4% [activator]. With Cc1ccc(CN(C(=O)C(F)(F)F)C(C(=O)NC2CCCCC2)c2ccco2)cc1 (stereo not drawn) the Potency was inconclusive: 14.1 µM [inhibitor, partial curve, poor fit]. Cc1cc(-c2ccccc2)[nH]c(=O)c1C#N was tested, and the Potency was inconclusive: 31.6 µM [activator, partial curve, poor fit].

Reference: PubChem BioAssay AID1466 (National Center for Advancing Translational Sciences (NCATS), 2008)
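For activity change, negative = inhibition in this document: plate controls were uninhibited enzyme wells for no effect and no-enzyme background for full effect.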
Potency is read from the fitted curve at half-maximal effect; tags tell the direction and shape of the fitted curve.
